Growth inhibition call data for 9 compounds are collected here from the antibiotic and cytotoxicity screens of Wong et al. (2023).

Some of the results follow.

The test system of this test is S. aureus RN4220. The experiment in a line: growth inhibition call (relative growth <= 0.2). The following applies: 50 µM.
For `C[C@@H]1CN([C@@H](C)CO)C(=O)c2cc(NC(=O)Nc3ccc4c(c3)OCO4)ccc2O[C@@H]1CN(C)Cc1ccc(C(F)(F)F)cc1`, the growth inhibition call was “inactive”.

For `C[C@H]1CCCCO[C@H](CN(C)CC2CC2)[C@@H](C)CN([C@@H](C)CO)C(=O)c2cc(NC(=O)Nc3ccc4c(c3)OCO4)ccc2O1`, the growth inhibition call was “inactive”.

Regarding `CN(C)CC(=O)N1CC2(C1)[C@@H](c1ccccc1)[C@H](CO)N2S(C)(=O)=O`, the growth inhibition call is “inactive”.

In the case of `C[C@@H]1CN([C@H](C)CO)C(=O)c2cc(NC(=O)Cc3cn(C)c4ccccc34)ccc2O[C@H]1CN(C)S(=O)(=O)c1cn(C)cn1`, the growth inhibition call is “inactive”.

`C[C@H]1CN([C@@H](C)CO)C(=O)c2cc(NC(=O)CCCCCC(=O)Nc3ccccc3N)ccc2O[C@@H]1CN(C)C(=O)Nc1ccc(C(F)(F)F)cc1`: the growth inhibition call is “inactive”.

`C[C@@H]1CN([C@@H](C)CO)C(=O)CCCn2cc(nn2)CO[C@@H]1CN(C)C(=O)Nc1ccc(N2CCCCC2)cc1`: the growth inhibition call was “inactive”.

Take `CC1=C(C(=O)O)N2C(=O)[C@@H](NC(=O)[C@@H](N)c3ccc(O)cc3)[C@H]2SC1`: the growth inhibition call is “inactive”.

For the compound `C=CCOC(=O)[C@H]1[C@@H]2C(=O)O[C@@H](c3ccccc3)[C@@H](c3ccccc3)N2[C@@H](c2ccc(OCCOC(=O)[C@@H]3C[C@@H]4C(=O)N[C@@H](CCCC[N+](C)(C)C)C(=O)N4[C@@H]3c3cccc(OCCO)c3)cc2)[C@]12C(=O)Nc1ccc(I)cc12`, the growth inhibition call is “inactive”.

As for `O=C(O)[C@@H]1CCCC[C@@H]1C(=O)N1CCc2ccccc2[C@H]1CN1C(=O)c2ccccc2C1=O.O=C(O)[C@H]1CCCC[C@@H]1C(=O)N1CCc2ccccc2[C@H]1CN1C(=O)c2ccccc2C1=O`, the growth inhibition call was “inactive”.
